Data published in patent publication US20160137740A1 (AstraZeneca / MedImmune, published 2016).

How the values were obtained:
[1] = biological target: T1, Human TNFRSF16 (NGFR) expressed on HEK293 cells (human, UniProt P08138 29-427); test: flow cytometry on transfected HEK293 cells, 1 µg/mL
T1 construct: whole, on cells; also called NGF receptor
T1 sequence (looked up): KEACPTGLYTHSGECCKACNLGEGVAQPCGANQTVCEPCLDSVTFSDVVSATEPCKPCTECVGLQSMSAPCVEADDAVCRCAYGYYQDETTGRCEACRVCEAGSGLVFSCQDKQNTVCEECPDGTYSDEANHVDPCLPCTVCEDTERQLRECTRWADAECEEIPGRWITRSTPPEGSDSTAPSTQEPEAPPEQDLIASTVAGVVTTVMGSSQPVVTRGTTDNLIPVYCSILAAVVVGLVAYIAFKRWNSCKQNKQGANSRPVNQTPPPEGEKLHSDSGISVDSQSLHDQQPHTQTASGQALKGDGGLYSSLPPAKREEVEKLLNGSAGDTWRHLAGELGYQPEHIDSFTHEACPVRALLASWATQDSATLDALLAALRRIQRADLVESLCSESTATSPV
Text: (§1) cDNA constructs capable of directing the expression of individual TNFRSF members, when transfected into mammalian cells, were obtained from Origene Technologies, Rockville, Md. These cDNA constructs were amplified and purified by the Protein Sciences group at MedImmune in Gaithersburg, Md. for use in transient transfections. […] Forty-eight hours post transfection, cells were removed from tissue culture plates by trypsinization. […] Cells were then suspended in cold FACS buffer (PBS+2% FBS) and plated into 96 well non-tissue culture-treated plates for binding studies with TNFRSF member-specific mAbs (Table 3-3) and OX40mAb24.
(§2) For binding of antibodies or OX40mAb24, HEK cells were pelleted, FACS buffer removed, and cells suspended in FACS buffer containing 2 μg/mL propidium iodide (PI) and either a fluorochrome-labeled mAb, specific for the transfected TNFRSF member, at a concentration recommended by the manufacturer or with OX40mAb24 at a concentration of 1 μg/mL. For binding controls, cells were separately incubated with fluorochrome-labeled isotype control antibodies. Cells were incubated with antibodies for 1 hour at 4° C. in the dark. Thereafter, cells incubated with fluorochrome-labeled monoclonal antibodies were washed in cold FACS buffer and then binding events collected and analyzed by flow cytometry using an LSRII flow cytometer (BD Biosciences, San Jose, Calif.) and FlowJo software, as described in Section 3.2.3. Cells incubated with OX40mAb24 were washed in ice cold FACS buffer and then suspended 25 μg/mL of Alexa Fluor® 647 goat antihuman IgG (H+L) secondary antibody and incubated for a further 30 minutes at 4° C. in the dark. For a secondary antibody binding control cells were incubated in the absence of OX40mAb24, but in the presence of fluorochrome-labeled secondary antibody alone. Thereafter, cells were washed and suspended in cold FACS buffer for analysis on an LSRII flow cytometer.

[2] = biological target: T2, Human TNFRSF14 (HVEM) expressed on HEK293 cells (human, UniProt Q92956 39-283); test: as above
T2 construct: whole, on cells; also called TR2
T2 sequence (looked up): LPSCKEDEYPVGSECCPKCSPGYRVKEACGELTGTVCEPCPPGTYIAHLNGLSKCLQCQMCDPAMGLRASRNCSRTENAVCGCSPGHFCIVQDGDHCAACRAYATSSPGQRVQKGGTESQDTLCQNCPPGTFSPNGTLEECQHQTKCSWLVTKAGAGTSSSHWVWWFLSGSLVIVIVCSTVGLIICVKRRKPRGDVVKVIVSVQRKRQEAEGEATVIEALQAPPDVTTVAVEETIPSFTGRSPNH
Text: as §1, §2

[3] = biological target: T3, Human TNFRSF18 (GITR) expressed on HEK293 cells (human, UniProt Q9Y5U5 26-241); test: as above
T3 chain: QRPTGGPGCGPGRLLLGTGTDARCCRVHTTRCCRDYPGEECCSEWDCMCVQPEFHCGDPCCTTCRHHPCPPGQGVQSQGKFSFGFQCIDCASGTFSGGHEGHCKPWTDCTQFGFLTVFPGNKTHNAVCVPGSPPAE
Text: as §1, §2

[4] = biological target: Human TNFRSF3 (LTβR) expressed on HEK293 cells (human, UniProt P36941 31-435); test: as above
Text: as §1, §2

[5] = biological target: T4, Human TNFRSF9 (CD137) expressed on HEK293 cells (human, UniProt Q07011 24-255); test: as above
T4 construct: whole, on cells; also called 4-1BB
Text: as §1, §2

[6] = biological target: T5, Human OX40 (human, UniProt P43489 29-277); test: flow cytometry on human OX40-overexpressing Jurkat NFkB-luciferase clone 64 cells, AlexaFluor 647 anti-human IgG secondary [panel C]
T5 construct: also called CD134; TNFRSF4
T5 sequence: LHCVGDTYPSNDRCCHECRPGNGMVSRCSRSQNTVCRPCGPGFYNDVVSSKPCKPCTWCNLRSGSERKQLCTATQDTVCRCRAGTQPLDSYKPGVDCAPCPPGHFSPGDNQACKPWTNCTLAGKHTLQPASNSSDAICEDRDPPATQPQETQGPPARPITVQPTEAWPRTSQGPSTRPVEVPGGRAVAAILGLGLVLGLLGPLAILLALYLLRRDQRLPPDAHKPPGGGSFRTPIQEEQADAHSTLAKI
Procedure: (§3) Human OX40-overexpressing Jurkat NFκB-luciferase clone 64 cells were cultured in complete RPMI+10% FBS prior to binding experiments, without the need for activation.
(§4) OX40mAb24 (10 μg/mL) or 9B12 (10 μg/mL) was diluted over a 17 point 2-fold dilution series. OX40mAb24 was added to 100,000 cells (activated primary CD4⁺ T cells or human OX40-overexpressing Jurkat NFkB-luciferase clone 64 cells) per well and incubated for one hour at 4° C. For background binding subtraction, cells were incubated in the presence of secondary antibody alone. […] Following secondary antibody incubation, cells were washed and suspended in 100 μL FACS buffer for flow cytometry analysis on a BD LSRII flow cytometer as described below.

[7] = biological target: T5, Human OX40; test: flow cytometry on human OX40-overexpressing Jurkat NFkB-luciferase clone 64 cells, AlexaFluor 647 anti-human IgG secondary [panel B]
Procedure: as §3, §4

T4 sequence (Q07011 24-255): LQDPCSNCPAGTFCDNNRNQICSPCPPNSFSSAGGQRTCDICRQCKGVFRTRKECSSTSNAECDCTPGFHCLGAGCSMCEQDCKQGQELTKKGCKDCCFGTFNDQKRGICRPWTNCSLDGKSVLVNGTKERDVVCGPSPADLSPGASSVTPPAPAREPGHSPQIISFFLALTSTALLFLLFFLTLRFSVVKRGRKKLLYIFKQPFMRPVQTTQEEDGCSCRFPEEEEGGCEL
Chain of UniProt P36941 (P36941 31-227): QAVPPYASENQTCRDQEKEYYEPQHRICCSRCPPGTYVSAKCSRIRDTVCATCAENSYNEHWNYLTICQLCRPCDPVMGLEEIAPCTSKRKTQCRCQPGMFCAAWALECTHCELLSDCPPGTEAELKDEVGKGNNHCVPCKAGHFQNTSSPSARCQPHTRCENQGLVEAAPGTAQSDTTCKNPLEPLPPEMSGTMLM

B1: OX40mAb24 (antibody, human IgG1, kappa)
heavy: QVQLQESGPGLVKPSQTLSLTCAVYGGSFSSGYWNWIRKHPGKGLEYIGYISYNGITYHNPSLKSRITINRDTSKNQYSLQLNSVTPEDTAVYYCARYKYDYDGGHAMDYWGQGTLVTVSSASTKGPSVFPLAPSSKSTSGGTAALGCLVKDYFPEPVTVSWNSGALTSGVHTFPAVLQSSGLYSLSSVVTVPSSSLGTQTYICNVNHKPSNTKVDKRV[skipping human IgG1 Fc]
light: DIQMTQSPSSLSASVGDRVTITCRASQDISNYLNWYQQKPGKAPKLLIYYTSKLHSGVPSRFSGSGSGTDYTLTISSLQPEDFATYYCQQGSALPWTFGQGTKVEIKRTVAAPSVFIFPPSDEQLKSGTASVVCLLNNFYPREAKVQWKVDNALQSGNSQESVTEQDSKDSTYSLSSTLTLSKADYEKHKVYACEVTHQGLSSPVTKSFNRGEC
notes: Humanized from 9B12; human IgG1 kappa; also called humanized anti-human OX40 IgG1κ monoclonal antibody
- ratio of MFI to secondary antibody alone [1]: 2.2 fold
- ratio of MFI to secondary antibody alone [2]: 1.1 fold
- ratio of MFI to secondary antibody alone [3]: 1.1 fold
- ratio of MFI to secondary antibody alone [4]: 1 fold
- ratio of MFI to secondary antibody alone [5]: 1.2 fold
- EC50 (read off the curve) [6]: ~700 pM
- EC50 (read off the curve) [7]: ~100 pM
